# Measurements: the supplement of paper PMC5499739
# In all, about 16,000 sequences were measured (“Z-score”: median about -0.37, highest 2% from about 3.2 on). The list shows a part of the results.
# System: RBM10 RRM1-ZnF (GST-tagged construct)
# Assay: RNAcompete 7-mer binding Z-score; higher = stronger binding preference
# Procedure, shortened: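 A one-sided Z-score for enrichment, taken across the probes containing each heptamer motif, was assigned to every such motif. The RNA came from a designed pool of 241 399 sequences up to 41 nt (1.5 nmol), bound by 20 pmol of GST-tagged RBM10 constructs in 1 ml Hepes pH 7.8 buffer with glutathione Sepharose beads for 30 min at 4°C. Four 2-min washes at 4°C preceded identification of bound RNA by microarray hybridisation.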
row,Sequence,RNAcompete 7-mer binding Z-score
1,CCGGCUA,-0.633
2,UAGAAGA,0.439
3,CCAGUGC,-0.519
4,CAGCGCA,-0.366
5,UAGGGGU,3.9
6,CCGCAGA,-0.503
7,AGCCUGG,-0.262
8,GUACACA,-0.269
9,GGCAGCC,-0.272
10,GGAAUAC,0.878
11,AUGAUAU,-0.0772
12,AAGCUGA,-0.0837
13,AAUAACG,-0.256
14,AGAUGUC,-0.444
15,CGAGCAC,-0.116
16,UCUGCUG,-0.617
17,UGUUUCA,-0.727
18,CCUUCCC,-0.548
19,ACCGUUA,-0.795
20,UCCCAGA,-0.678
21,CCUAGGA,0.199
22,CACUCGC,-0.604
23,AGGGGGG,2.76

row,Sequence,RNAcompete 7-mer binding Z-score
1,CCGCACA,-0.662
2,ACAAGAA,-0.145
3,UUCCCUC,-0.62
4,GAAAUGC,0.0528
5,GAUUAGC,0.0593
6,AGCGAAU,0.166
7,GGGCAAU,1.35
8,UUACGGA,0.186
9,AGCUUAC,-0.639
10,CAACAUG,-0.204
11,CAUUAGG,0.267
12,UAUGGUC,0.335
13,GUACCAG,-0.035
14,AGCUCGG,0.131
15,AUGUCUA,-0.698
16,UAGCAAC,-0.542
17,GUCUCCG,-0.451
18,AUUAGUC,-0.344
19,AGCGCUA,-0.431
20,UGUACCU,-0.759
21,GCAGCGU,0.254
22,GGUGUGA,2.52
23,CCGCCAG,-0.344

row,Sequence,RNAcompete 7-mer binding Z-score
1,CUAACCA,-0.698
2,GCCGUGA,-0.285
3,UACUAGG,0.612
4,CAACCGA,-0.597
5,GUUUGAG,0.391
6,CGUGGAG,1.97
7,ACCCGAA,-0.672
8,GAUCGGC,-0.0869
9,UCCCCUC,-0.428
10,CGGACCC,-0.136
11,UAGGUCC,-0.165
12,ACCGGUU,-0.305
13,CCAUGUU,-0.886
14,CACUUAG,-0.552
15,UCUACGG,-0.389
16,CCGACUG,-0.565
17,UUUAGCU,-0.746
18,CCCCUAG,-0.129
19,AUAAGUA,-0.194
20,UCUACCA,-0.779
21,AAUGUAA,0.0788
22,CAACACG,-0.457
23,UCUAAGA,-0.62

row,Sequence,RNAcompete 7-mer binding Z-score
1,UGCGAGC,0.316
2,UAUCAAG,-0.363
3,AAUCUAC,-0.594
4,CCGGCCC,-0.535
5,UACCAGG,0.0235
6,AAGACAU,-0.106
7,CAUUUGA,-0.776
8,AGUAUGG,2.48
9,GUCACGC,-0.227
10,GUGGCAU,0.813
11,GACGGUA,1.19
12,AAUAAGG,1.2
13,GCUCGUU,-0.526
14,GACAGGA,2.07
15,GAUCAAA,-0.451
16,CUUCAUG,-0.753
17,CGCUAGA,-0.451
18,AGUCCAA,-0.526
19,AUUCUGC,-0.86
20,GAUAUUU,-0.327
21,ACCGUGC,-0.561
22,GUCCAGC,-0.457
